The list shows a part of the results.

This assay concerns T1, C. trachomatis L2/434/Bu expressing GFP (CTL2-GFP).
T1 construct: L2/434/Bu GFP intracellular growth in HeLa cells
Also noted: species or system HeLa; C. trachomatis total inclusion area by high-content imaging, normalised to DMSO. As to conditions: total inclusion area; 28.5 h, 10 µM; inhibitor. A digest of the protocol: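 Post-fluorescence-read fixation, DNA staining with Hoechst and high-content imaging; GFP inclusion area and number per well, and nuclei counts, used as proxies for bacterial growth and host viability.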
Take `O=c1cc(CN2CCN(c3ccccc3)CC2)occ1O` [CBK288392]: the “% of control remaining” value was determined as 81.3814.
As for `O=C(C1CC1)N1CCC(c2nc(Cc3cccs3)no2)C1` (centres unmarked) [CBK282980], the “% of control remaining” value is recorded as 105.123.
Regarding `NC(=O)C1CCN(C(=O)CSc2nc3ccccc3o2)CC1` [CBK265930], the “% of control remaining” value is recorded as 95.3318.
As for `Cc1nc2c(C(=O)NCC(F)(F)F)cnn2c(C)c1Cc1cccc(F)c1` [CBK162117], the “% of control remaining” value worked out at 83.9019.
Turning to `COc1ccc2[nH]c3c(c2c1)CCNC31CCCN(CCc2ccc(F)cc2)C1` (centres unmarked) [CBK039246], the “% of control remaining” value is on record as 66.4185.
Turning to `CCOC(=O)[C@@]12CC=CCN(C(=O)c3cccnc3)[C@@H]1CCC2` [CBK284575], the “% of control remaining” value amounted to 114.899.
For `Cc1ccc(SCC(=O)NCc2nc(-c3ccccc3)no2)cc1` [CBK269474], the “% of control remaining” value was found to be 83.6691.
Turning to `OC(CN1CCN(Cc2ccc3c(c2)OCO3)CC1)C(F)(F)F` (centres unmarked) [CBK074833], the “% of control remaining” value stood at 67.2673.
As for `Cc1cc(=O)oc2cc(OCC(=O)Nc3ccc(S(=O)(=O)O)cc3)ccc12` [CBK301204N], the “% of control remaining” value was 94.435.
In the case of `O=C(C1CCC1)N1CCN(c2ccccn2)CC1` [CBK026058], the “% of control remaining” value turned out to be 81.4713.
In the case of `Cc1cc(COc2cc(C(F)(F)F)ccn2)no1` [CBK115787], the “% of control remaining” value stood at 133.308.
As to `OCCNCCOc1ccc(Cl)cc1Br` [CBK265083G], the “% of control remaining” value is listed as 97.0748.
For the molecule `Cc1cccc(N/C=C(/C#N)c2nc(-c3ccc4c(c3)OCO4)cs2)c1C` [CBK263013], the “% of control remaining” value turned out to be 91.7627.
The same measure for `Cc1ccc(-c2cncc(NCc3cccs3)n2)cc1C` [CBK065967]: 121.932; for `CCn1c(C)nnc1SCCNc1cc(C(C)C)nc2ccnn12` [CBK306829]: 62.4817; for `O=C(O)/C=C\C(=O)NCC(=O)O` [CBK260989]: 96.828.
Regarding `COc1ccc(C(=O)Nc2ccc(C3c4ccsc4CCN3C(C)=O)cc2)cc1` (centres unmarked) [CBK286465], the “% of control remaining” value came out at 75.3338.
With `COc1ccc(C(=O)N2CC[C@H]3CC(=O)N(CCNC(C)=O)CC[C@H]3C2)cc1` [CBK288784], the “% of control remaining” value was found to be 88.7796.
For the molecule `CCOC(=O)Cc1csc(SC(C)C(=O)N2CCNC2=O)n1` (centres unmarked) [CBK304551], the “% of control remaining” value is listed as 101.323.
Consider `COCC(=O)N1CCN2C(=O)c3ccc(Cl)cc3NC(=O)[C@H]2C1` [CBK289588], for which the “% of control remaining” value amounted to 104.222.
`Cc1ccc2c(c1)cc(C(=O)N1CCCC(C)(C(=O)NC3CCCC3)C1)n2C` (centres unmarked) [CBK286076]: the “% of control remaining” value turned out to be 82.4391.
With `CN(C)CCCN1C(=O)C(O)=C(C(=O)c2ccc(F)cc2)C1c1ccco1` (centres unmarked) [CBK264456], the “% of control remaining” value was determined as 103.973.
The result for `c1ccc2cc(CCN3CCN(c4nccnc4OCCN4CCOCC4)CC3)ccc2c1` [CBK082911T] reads 85.9451.
The result for `CCOC(=O)c1[nH]c2ccccc2c1NS(=O)(=O)Cc1ccccc1` [CBK047413] reads 107.521.
On to `CS(=O)(=O)N1CC2(CCN(Cc3ncc[nH]3)CC2)c2ccccc21` [CBK126680], for which the “% of control remaining” value is 98.4402.
On to `O=C(Nc1ccc(F)cc1)c1c(NS(=O)(=O)Cc2ccccc2[N+](=O)[O-])sc2c1CCCC2` [CBK028654], for which the “% of control remaining” value was found to be 81.0667.
Take `CCN1C(=O)c2ccccc2C(=O)[C@@]2(C)CN(C(C)C)C[C@@H]12` [CBK283480]: the “% of control remaining” value is 80.3874.
In the case of `COC(=O)[C@@H](C)NC(=O)[C@H]1CN(S(=O)(=O)c2ccccc2)CCN1C(C)=O` [CBK289626], the “% of control remaining” value was found to be 118.653.
Take `Cc1nc(C)c(C(=O)N2CC(C(=O)N3CCN(c4ccccc4)CC3)C2)s1` [CBK285666]: the “% of control remaining” value was 110.487.
For the molecule `O=C1Cc2ccccc2C2(CCN(C(=O)c3cccc4cccc(C(=O)O)c34)CC2)N1` [CBK047313], the “% of control remaining” value is on record as 84.159.
For the molecule `CCOc1ccc(-c2ccnc(N3CCC(N(C)C)C3)n2)cc1C(=O)O` (centres unmarked) [CBK307241], the “% of control remaining” value came out at 71.5806.
Consider `Cc1ccc(-n2c(SCC(=O)NC(C)Cc3ccccc3)nc3sc4c(c3c2=O)CC(C)(C)OC4)cc1` (centres unmarked) [CBK267714], for which the “% of control remaining” value was 102.955.
With `O=C(NCc1ccc2c(c1)OCO2)[C@H]1CN2CCC1C[C@@H]2Cn1cc(-c2ccccn2)nn1` (some centres unmarked) [CBK289082], the “% of control remaining” value amounted to 103.607.
In the case of `O=C(O)c1ccc(-n2nnnc2Sc2nc([N+](=O)[O-])nn2Cc2ccccc2F)cc1` [CBK268498], the “% of control remaining” value was determined as 145.135.
The result for `C(=N\c1ccc(Cc2ccc(/N=C/c3cccnc3)cc2)cc1)/c1cccnc1` [CBK260884] reads 109.852; that for `COc1ccc(OC)c(NC(=O)CN2CCC(C(N)=O)(N3CCCCC3)CC2)c1` [CBK268462], 99.5875; that for `O=C(O)c1cccc(N2C(=O)CC(n3cnc4ccccc43)C2=O)c1` (centres unmarked) [CBK291145], 103.547.
The result for `O=C(C[C@@H]1O[C@H](CNCc2cccc(Cl)c2)[C@@H](O)[C@H]1O)N1CCOCC1` [CBK288905] reads 112.056; that for `CC(NCCN1CCOCC1)=C1C(=O)c2ccccc2C1=O` [CBK262691], 99.1088.
The result for `O=c1oc(-c2ccco2)nn1Cc1ccc([N+](=O)[O-])cc1` [CBK295593] reads 94.4508.
For `CCCC(=O)CCOC(=O)C1=C(C)OC2C1Nc1cc(F)c(F)cc1N2CC` (centres unmarked) [CBK022099], the “% of control remaining” value is recorded as 111.008.
With `CC(=O)Nc1ccc(-c2cncc(N3CCN(C(=O)c4ccco4)CC3)n2)cc1` [CBK066065], the “% of control remaining” value amounted to 132.37.
`O=C(c1cccs1)N1CCC(c2n[nH]c3ncccc23)CC1` [CBK284904]: the “% of control remaining” value was determined as 126.513.
Regarding `Cc1noc(C)c1C(=O)N1CCC(c2nc(C)n3ccsc23)CC1` [CBK285239], the “% of control remaining” value was found to be 123.871.
With `CC(C)c1n[nH]c(C2CN(Cc3nc4c(F)cccc4[nH]3)CCO2)n1` (centres unmarked) [CBK305225], the “% of control remaining” value was found to be 31.0254.
Regarding `CN1CCCN(c2nccnc2-c2cccs2)CC1` [CBK088823], the “% of control remaining” value turned out to be 92.8995.
On to `CC(C)c1nnc(NS(=O)(=O)c2ccc(N)cc2)s1` [CBK050163], for which the “% of control remaining” value is reported as 51.1918.
As to `Cc1ccc(C(C)C(=O)N2CCC(C(=O)c3cccnc3)CC2)cc1` (centres unmarked) [CBK283516], the “% of control remaining” value was determined as 96.8556.
The result for `O=C(Nc1cccc(C(F)(F)F)c1)Nc1cccc(S(=O)(=O)N2CCOCC2)c1` [CBK267043] reads 53.5522; that for `CCC12CN3CC(CC)(CN(C1)C3c1ccccc1[N+](=O)[O-])C2=O` (centres unmarked) [CBK264604], 107.218.

For the origin of these results see paper PMC12040169 (PLOS Biology, 2025).
